B1: TPR 5TU (parent)
chain: GGAUCUUCUCGAUCUAACAAAAAAGACAAAUCUGCCACAAAGCUUGAGAGCAUCUUCGGAUGCAGAGGCGGCAGCCUUCGGUGGCGCGAUAGCGCCAACGUUCUCAACUAUGACACGCAAAACGCGUGCUCCGUUGAAUGGAGUUUAUCAUG

Variants at the floor of the assay are shown more often than the library holds them.

This series covers variants of B1. As to the kind of experiment: polymerase ribozyme fitness, log enrichment relative to wild type (log ratio); higher = more active; in vitro selection for triplet polymerase activity. In a few lines:
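For each subunit of a heterodimeric triplet polymerase ribozyme, a mutant library was built by PCR and transcribed, then taken through a single in vitro selection round in triplicate. Selection involved annealing to a biotinylated primer, the partner subunit and triplets, incubation frozen at −7 °C, gel excision of extended constructs, capture on streptavidin beads and RT-PCR. Genotypes were retained after Illumina sequencing of inputs and outputs only with ≥10 input reads and ≥1 read in each output. Fitness is defined as the logarithm of a genotype's enrichment relative to wild-type enrichment, using inverse-variance-weighted averages across replicates, with the logarithm taken to base 2.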
Consider C10G G50C U90A A98G C99A U111G A119U A122U, for which the “polymerase ribozyme fitness (log ratio)” value was not above -4.2.
For G11A G25U C38U G86A, the “polymerase ribozyme fitness (log ratio)” value was not above -4.2.
On to G11C C18G G86C, for which the “polymerase ribozyme fitness (log ratio)” value is not above -4.2.
For the variant C10G A12G G59U C93G A122U U134G, the “polymerase ribozyme fitness (log ratio)” value is not above -4.2.
As to C10U C27A C32G C87U C96U C105A G133U, the “polymerase ribozyme fitness (log ratio)” value is not above -4.2.
Turning to C10G C18G A24U U77A C93U G136A, the “polymerase ribozyme fitness (log ratio)” value is not above -4.2.
Turning to G11A A22U A29U A41G U55A U56A G84C, the “polymerase ribozyme fitness (log ratio)” value is not above -4.2.
For C10U U15A C36U U61A G92A G141C, the “polymerase ribozyme fitness (log ratio)” value was not above -4.2.
Regarding C10U A20C C108U, the “polymerase ribozyme fitness (log ratio)” value was not above -4.2.
On to C10U C14U C35G U44A A52U C75U C85U C95U U104C A138G G140U, for which the “polymerase ribozyme fitness (log ratio)” value is not above -4.2.
For the variant C10G A52C C63U A110G, the “polymerase ribozyme fitness (log ratio)” value is not above -4.2.
For the variant C10G C63U G92U A113C C114A, the “polymerase ribozyme fitness (log ratio)” value is not above -4.2.
C10U C32A C75U C131U: the “polymerase ribozyme fitness (log ratio)” value was not above -4.2.
The result for C10G U44A G59U U109C G143C reads not above -4.2; that for C10U C18U U55G C63U G80C G81U U130A G133C, not above -4.2; that for C10U A41C U44G C87U A89G, not above -4.2.
For C10U C35U A41C C54U G81U G94A A113U A147G the value was not above -4.2.
On to C10U G92U C99U A137C, for which the “polymerase ribozyme fitness (log ratio)” value was not above -4.2.
Take C10U A12U U77C G133C U151A: the “polymerase ribozyme fitness (log ratio)” value was not above -4.2.
Take C10U A17G G42U U44A G58C G83U U111C: the “polymerase ribozyme fitness (log ratio)” value is not above -4.2.
Take C10U A12U A17U U44G G67U C72A G88C U101G C116U A122U: the “polymerase ribozyme fitness (log ratio)” value was not above -4.2.
With G11C A22G A26U G83A A89C U90G C123U C149A, the “polymerase ribozyme fitness (log ratio)” value is not above -4.2.
Turning to C10U G81A C93G, the “polymerase ribozyme fitness (log ratio)” value was not above -4.2.
Regarding C10G U55G C87A A110G C129G, the “polymerase ribozyme fitness (log ratio)” value is not above -4.2.
On to C10A U55A G88C A110C A137U G141C, for which the “polymerase ribozyme fitness (log ratio)” value was not above -4.2.
G11A U15A C36A A97U G100A A106C A113G A119U: the “polymerase ribozyme fitness (log ratio)” value was not above -4.2.
The result for C10G G11A G46A C57A U78G C79G G92A C123U reads not above -4.2.
Regarding G11A U13G U15G G71C C95G C103A G128U U130G C149G, the “polymerase ribozyme fitness (log ratio)” value was not above -4.2.
The result for G11A A12C A20U C87U C114A C149U reads not above -4.2; that for C10U A30U C35U U55G U61A, not above -4.2; that for G11C A19C C79A C125G, not above -4.2.
The result for C10G A17U A19U C43U C54U U148C reads not above -4.2; that for G11A C51U G86U C108U A119U A142C, not above -4.2.
Consider C10U G59A U77G G92U C99A G124A, for which the “polymerase ribozyme fitness (log ratio)” value was not above -4.2.
Consider C10G C85U C87A U101A C118U C131A U151G, for which the “polymerase ribozyme fitness (log ratio)” value is not above -4.2.
Turning to C10U C27A U53G A66C C87A, the “polymerase ribozyme fitness (log ratio)” value was not above -4.2.
As for C10G C76U G84A C85A C129U U134C, the “polymerase ribozyme fitness (log ratio)” value is not above -4.2.
G11C A24U U31G C38A G59A G86U U102C G128C: the “polymerase ribozyme fitness (log ratio)” value was not above -4.2.
With C10G A20C G42C C51U C85A A91C C108U C118U U146A, the “polymerase ribozyme fitness (log ratio)” value was not above -4.2.
With G11A A21U A40U A47C G59A C85A U134A U139A A147C, the “polymerase ribozyme fitness (log ratio)” value was not above -4.2.
For the variant C10U U53A C63G C69A U144A, the “polymerase ribozyme fitness (log ratio)” value is not above -4.2.
In the case of C10G A23U U31G C32U A41C U55A C93G, the “polymerase ribozyme fitness (log ratio)” value was not above -4.2.
Regarding C10U A64G, the “polymerase ribozyme fitness (log ratio)” value was not above -4.2.
For C10U A24U C27U C54U C87U A115U the value was not above -4.2.
C10U A12C A26C G50A A64U: the “polymerase ribozyme fitness (log ratio)” value is not above -4.2.
Take C10U C75A C118U: the “polymerase ribozyme fitness (log ratio)” value was not above -4.2.
Consider C10U A47C A66U C76U C85A C99A, for which the “polymerase ribozyme fitness (log ratio)” value is not above -4.2.
On to G11A C76G C93A G117A, for which the “polymerase ribozyme fitness (log ratio)” value is not above -4.2.
For G11C C27G A37U U102C A106G G136U the value was not above -4.2; for C10A G88A U101A U102A, not above -4.2.
In the case of C10U A26C A41U G86C A89G G112A U135C, the “polymerase ribozyme fitness (log ratio)” value is not above -4.2.
As for C10U G71A G88A C93U A113U C116U G117U U148A G152U, the “polymerase ribozyme fitness (log ratio)” value is not above -4.2.
Turning to C10U A17U A24C C54A U55G, the “polymerase ribozyme fitness (log ratio)” value is not above -4.2.
The result for G11A G25C C32G A60U reads not above -4.2; that for C10A U55A C63U A150C, not above -4.2.
Regarding C10U A37U C118U A138C, the “polymerase ribozyme fitness (log ratio)” value was not above -4.2.
As to C10G A24C C27U A29U A52G G94U A110U G133C, the “polymerase ribozyme fitness (log ratio)” value was not above -4.2.
With G11A A12G C32U G50C U55G C72U G92A C118U U146C, the “polymerase ribozyme fitness (log ratio)” value was not above -4.2.
With C10U U13G U15C A19C C43G C75G U78G C99A A115C C116U, the “polymerase ribozyme fitness (log ratio)” value is not above -4.2.
In the case of C10G A29U C51A U55A U90C A106C A121G, the “polymerase ribozyme fitness (log ratio)” value is not above -4.2.
In the case of G11C A21U C36U U61A C75U C99A U102G U130G G141C, the “polymerase ribozyme fitness (log ratio)” value is not above -4.2.
As to G11A A28U G50C C51A G74U C85U G126A, the “polymerase ribozyme fitness (log ratio)” value is not above -4.2.
The result for G11C C43U G80C G86U A138G U151A reads not above -4.2; that for C10G G25A C27U G46U U82A, not above -4.2.
For the variant C10G A19C C27G G84C A91G, the “polymerase ribozyme fitness (log ratio)” value was not above -4.2.
In the case of G11A C32U A52C G58C C75U C76G C79G C87A G133A G136U, the “polymerase ribozyme fitness (log ratio)” value was not above -4.2.
In the case of C10G A17U C54A G83U, the “polymerase ribozyme fitness (log ratio)” value was not above -4.2.
For the variant G11A A16U A19U U77G C85U G117A C125G, the “polymerase ribozyme fitness (log ratio)” value was not above -4.2.
Take C10A G83C C125U U146G: the “polymerase ribozyme fitness (log ratio)” value was not above -4.2.
On to C10G A24C U45G C96A C103A G124C, for which the “polymerase ribozyme fitness (log ratio)” value was not above -4.2.
C10U G25C A26U C57G U77A G88A G124C U144C: the “polymerase ribozyme fitness (log ratio)” value was not above -4.2.
For C10G A60G G88U A91C C93U the value was not above -4.2.
C10G A19G C38U G58C C63U G70C: the “polymerase ribozyme fitness (log ratio)” value was not above -4.2.
As to C10G G11A A37C C93G C123A G141C, the “polymerase ribozyme fitness (log ratio)” value was not above -4.2.
Turning to C10U A17G A28U C54A C87G A137C, the “polymerase ribozyme fitness (log ratio)” value is not above -4.2.
Consider C10U U13G C72U C85U A91G C95A A97U, for which the “polymerase ribozyme fitness (log ratio)” value was not above -4.2.
For C10U C54A C93U U104G U145G G152C the value was not above -4.2.
In the case of C10G C14U A17U U31A C103A, the “polymerase ribozyme fitness (log ratio)” value was not above -4.2.
With C10G A17C G48C A60C G88C, the “polymerase ribozyme fitness (log ratio)” value is not above -4.2.
The result for C10G G80C U90G A106C A115G C132A reads not above -4.2; that for G11C A22G A26U G83A A89C U90G C123U, not above -4.2; that for C10U A23C U61C A115G, not above -4.2.
C10U G25U U101G A107U U144G: the “polymerase ribozyme fitness (log ratio)” value is not above -4.2.

The values are drawn from the RNAGym collection of RNA variant scans (doi:10.1073/pnas.2313332121).
